The source of these data is the supplement of paper PMC11417369.

This is one part of the list.

The test system of the assay is PF3D7_0420300 AP2 domain 1 (GST-tagged). The assay is described as follows: gcPBM binding intensity (ln(normalized median fluorescence intensity)); higher = stronger DNA binding. The method, boiled down: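 GST-tagged P. falciparum DNA-binding domains produced in E. coli were incubated for 1 h on an Agilent 4 × 180k array of primer-extended double-stranded 36-bp intergenic genomic probes with negative controls. Binding intensity is the highest Masliner-normalised natural-log median intensity across replicate spots of either probe orientation, with bound protein detected by Alexa488 anti-GST antibody at 488 nm.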
On to “TTATAGAAACATTGGTGTACGATATTTACTTCTTTC [XGTACX_site7314]”, for which the “gcPBM binding intensity (ln)” value came to 9.15.
To “GGAATAGTCGGGTGCATACACACCTTAAATATAATA [CACACA_site1081]” belongs 9.21; to “AATCATATTAGTATGGTGCAATATATATATAAATAT [GTGCAC_site9800]”, 9.31.
To “AAAGAAAATTCAATAGTGCATAAAAATATATATGTT [GTGCAC_site9680]” belongs 9.35.
Regarding “ATCATGAAATATATTTGTACACATAATAATATAATA [XGTACX_site8798]”, the “gcPBM binding intensity (ln)” value was determined as 9.29.
For “ATTTGGCAGAAACACACACACACACCCACCCACATA [CACACA_site589]”, the “gcPBM binding intensity (ln)” value is 10.4.
The result for “TTTTTTTTTATAAATACACACGTACGGGTGCATAAC [CACACA_site8444]” reads 9.03; that for “TATTAAAAGGTGAGTACACACATATATGTGTATATA [CACACA_site7070]”, 9.64; that for “ATATATATATATATATGTACACAGGACAATAATCCT [XGTACX_site6383]”, 9.33.
The result for “TATCATCTTAATATCGTGCACATTTATAGAACGAAA [GTGCAC_site9992]” reads 8.98.
To “TTTTACTATACTTATGCACACAAGATAAATACATAT [CACACA_site5619]” belongs 9.37.
“ATACCTCAAATTGATACACACAAAAAAAGTAAATTA [CACACA_site3134]”: the “gcPBM binding intensity (ln)” value is 9.63.
To “CTATTTTAATATTTTACACACCATGTAAAATATATA [CACACA_site5732]” belongs 9.23.
Consider “TATATATATATAACAACACACACAGATCATAAAACT [CACACA_site8670]”, for which the “gcPBM binding intensity (ln)” value was found to be 10.1.
The result for “TATTTTTTTTCGTAATGTACATAAAAAATGCAAAAA [XGTACX_site8491]” reads 8.84; that for “ATTATATAATTTAATCGTACACAAATATTTGTTAGT [XGTACX_site5913]”, 9.19; that for “TAAGTAATAGTTTGTGCACACTCAAGTATATCATAT [CACACA_site4035]”, 9.44.
To “CCATAATTATATGCCAGTACATATTTGTAACAAAAA [XGTACX_site851]” belongs 9.07; to “TTTATTTTTCATTGGGGTACACAAGTTTATTTTATT [XGTACX_site4263]”, 9.39.
Consider “CTTTTAAAAAAATTCATGCACACGAAATAAAAAGCA [CACACA_site929]”, for which the “gcPBM binding intensity (ln)” value is 9.36.
Take “TATTATTCCATGTGAAGTACAGAAATATAAATAAAT [XGTACX_site5106]”: the “gcPBM binding intensity (ln)” value amounted to 9.34.
Take “CAAAATATTTTTATAACACACATATATAGAATGTGC [CACACA_site1145]”: the “gcPBM binding intensity (ln)” value was determined as 9.34.
To “CTTATACAAAAAAAAAGTACATAACATAATAAGAAT [XGTACX_site6782]” belongs 9.76; to “TTATTTAAAAATAGCACACATTATATATATATATAT [CACACA_site5556]”, 9.24.
“ACAGATGATCAAAATTGTACAGAGTTATATTATATT [XGTACX_site4642]”: the “gcPBM binding intensity (ln)” value amounted to 9.3.
The result for “GATAAACCATATATAACACACATATGAATATTGCAA [CACACA_site6735]” reads 9.57; that for “CACCCATACAGACATACACACACATATATATTAATA [CACACA_site8077]”, 9.87; that for “ATATCATATATAAGTCGTACGATGAATAGAATTTTT [XGTACX_site7586]”, 9.2.
Regarding “TTTTTATTCGTTAAATGTACAAAAAAAATGTTATAT [XGTACX_site2804]”, the “gcPBM binding intensity (ln)” value turned out to be 9.06.
To “ATACACTAGAAAATTTTATAGTATTATTAATGTTAA [GTGCAC_negctrl_site101]” belongs 9.1; to “GCTTAGTTATATAACTGTACTATTTTTATTTATATG [XGTACX_site884]”, 9.65; to “ATAAAGTAAGAAGAAATAATGATTTTCATGGAAAAC [XGTACX_negctrl_site322]”, 9.33.
The result for “AAATATAAGTAAATAAATAAATATATAAATATATAA [TGCATGCA_negctrl_site441]” reads 9.21.
Consider “AAATACATACATTAATGTACAAATAGAAACACTCTT [XGTACX_site1512]”, for which the “gcPBM binding intensity (ln)” value amounted to 9.53.
To “AATAAGATAAGGAAAAGTACTTATAATTAAACTAAT [XGTACX_site1850]” belongs 9.38.
To “CTCATAGTTGGGTGCACACAAAAAATTAAAAAAATA [CACACA_site3032]” belongs 9.32.
The result for “AATCAAAAAGGAACCATAATATTACAACTATATATA [CACACA_negctrl_site381]” reads 9.41; that for “TAAAACTTAATGTTTTGTACATATTCTTCTTTATTT [XGTACX_site4271]”, 9.28; that for “AAAAAAAAAATTAAATGTACATATATAATATATATA [XGTACX_site7245]”, 9.11.
With “GCCATAAAGATATATACACACATAAAAAAAAGTTAT [CACACA_site6674]”, the “gcPBM binding intensity (ln)” value amounted to 9.62.
The result for “ATTATTATAGATAAAACACACAATTTTGTTTTCACA [CACACA_site7792]” reads 9.23; that for “TTAACAAAGAAACACACACACACACCCAAAAAAAAA [CACACA_site516]”, 10.2; that for “AAACAATTATTATATTGTACATATATTACATTATTA [XGTACX_site1089]”, 9.19.
The result for “TTATATTTTATTATGTGTACGTATATAATATAATAT [XGTACX_site6230]” reads 9.24; that for “TATAATATATAAAAATGTACACATAAATATAAGTAG [XGTACX_site665]”, 9.54; that for “GTATATATGTTTTATACACACATTAAAGGAAATATA [CACACA_site984]”, 9.39.
To “ACTAAATAAATAAATATAATATATAAATATGTATGT [TGCATGCA_negctrl_site583]” belongs 9.32; to “ACATGCAAGAAGAAATGTACTTAACATCTATATAGA [XGTACX_site7338]”, 9.19.
Take “AAAATTAATTTATTTACACACAATATTAAAATATTT [CACACA_site7512]”: the “gcPBM binding intensity (ln)” value stood at 9.35.
For the sequence “TTACATATTCATAAAAGTACATAATTATAAAAGGTA [XGTACX_site906]”, the “gcPBM binding intensity (ln)” value came out at 9.3.
The result for “TTTTATACATATTTTACACACTAAAATATACAGATA [CACACA_site4333]” reads 9.15; that for “ATATGTATATTTTTGATGTGCTTTTATTTGGTTATT [CACACA_negctrl_site626]”, 9.66; that for “CATCCACATAGATGTACACACATATATATATATATA [CACACA_site5616]”, 9.44.
Consider “CTTCATAAAAATTGCACACATATAATAATGTACATA [CACACA_site2212]”, for which the “gcPBM binding intensity (ln)” value worked out at 9.28.
To “ATTTTTTTATAATCAACCCATTTCCTACATTTTTAT [CACACA_negctrl_site1237]” belongs 9.48.
To “AAAAAAAATACATACACACACACACGCACATATATA [CACACA_site7645]” belongs 10.4; to “ATATCTCAACATATCACACATATATATATATAATAT [CACACA_site5018]”, 9.42.
Consider “AATAAATATAAATAAATAAATATATATATATATTTG [CACACA_negctrl_site1486]”, for which the “gcPBM binding intensity (ln)” value was 9.04.
To “ATAAAAATATATGAAACACACAGTTTCTATAAGAAA [CACACA_site4156]” belongs 9.22.
The result for “ATATGTATATAATAAGAACACACATATATTTAATTT [CACACA_site8961]” reads 9.56.
With “GTTATTAAATAATTCACACACATATATAAATAAATA [CACACA_site7129]”, the “gcPBM binding intensity (ln)” value worked out at 9.64.
For “TACAATATAATTTAATGTACATGTGAATATATATAT [XGTACX_site4675]”, the “gcPBM binding intensity (ln)” value was 9.22.
On to “TTAAAAAGAGGTGACACACACATATAAATCTAAATC [CACACA_site3738]”, for which the “gcPBM binding intensity (ln)” value turned out to be 9.83.
To “TAATATACTATAAATACACACAAGTGTACATACTTC [CACACA_site983]” belongs 9.42.
Turning to “TATTAAAAGGTGAGTACACACATATCTGAGTATATA [CACACA_site5192]”, the “gcPBM binding intensity (ln)” value was 9.42.
To “TTGTGCTAAACAAAAAAAAATATATATAAAAAAATA [XGTACX_negctrl_site388]” belongs 8.95; to “TCAACGATCACTCGGTGTACTATAAATGAGAGAATT [XGTACX_site1820]”, 9.14; to “AATTTTGAGATGTGGTGTACACAAAATTAGTTAGAC [XGTACX_site7033]”, 9.49.
In the case of “AACAATTTTTAAAGGTGTACAATATGTATATAAGAA [XGTACX_site254]”, the “gcPBM binding intensity (ln)” value was found to be 9.34.
The result for “ATTAAATTAAAATAATGTACTTAATACTTTTGCTTA [XGTACX_site8404]” reads 9.
To “ATATATATATATAAAGGTACACATTTATTAAATATA [XGTACX_site7102]” belongs 9.29; to “TAATATATATAACATATACACACGTTCATATATATA [CACACA_site462]”, 9.39.
The result for “TATTTGCAATATTATACACACATTAGATATTGCAAA [CACACA_site7565]” reads 9.31; that for “AAAAAAAAAAAAAAATGTACATATATAATATTTATA [XGTACX_site5117]”, 9.17.
For “TACAAAATGTTATATCAATATAGATAAAAAAATGAA [XGTACX_negctrl_site285]”, the “gcPBM binding intensity (ln)” value was determined as 9.14.
The result for “AACAAATTAATTCTAGTGCAGGACGTATTTGTGTAC [GTGCAC_site9907]” reads 9.41; that for “AATTAAACTTTGTTTTTGTTTTTTTTTTTTATATTT [CACACA_negctrl_site1316]”, 9.25.
To “ATATATATAAATATATGTACATAAATATATTTGTAA [XGTACX_site6715]” belongs 9.16.
“TCTTTAACAAGTTAAACACACATACCTATATACATA [CACACA_site7237]”: the “gcPBM binding intensity (ln)” value came out at 9.3.
To “TGGTGATATACGAAATGTACGCAAATCACAAAATAA [XGTACX_site8836]” belongs 9.15; to “AAATAAAAATTAAAAAAATAGAAACGAATTGAATGC [TGCATGCA_negctrl_site365]”, 9.75.
In the case of “CGCGTATAACGAAATTGTACAAAAAAAATTAAACAT [XGTACX_site6813]”, the “gcPBM binding intensity (ln)” value was 9.32.
The result for “TATATATGGAAAAGAGTCAAAAAGAAAAAAGAAAAA [CACACA_negctrl_site1374]” reads 9.17.
For “TATGAAATATTTATACACAGAACTTCATAATTTTCA [TGCATGCA_negctrl_site509]”, the “gcPBM binding intensity (ln)” value turned out to be 9.04.
The result for “TTTTTGTATTCTTCTTCTTCCAGACTACATTATGTC [XGTACX_negctrl_site235]” reads 9.14; that for “ATATATTTAAAATTGACACACATTTAATGACATTTT [CACACA_site3112]”, 9.33; that for “TAAGGATATATATATTCACACACACCGGGAAATATA [CACACA_site8020]”, 9.93.
